Experimental data: publication PMC10668032
Some of the results follow. At the low end of the ranking, values are background and their order means little.

Each sequence was assayed against SIX1 homeodomain (reference allele) (UniProt Q15475) (assay: universal protein binding microarray). Details: Universal all-10-mer PBM (8x60K, AMADID 030236), 300 nM GST-tagged protein, Alexa Fluor 488 anti-GST; buffer, salt, pH and temperature not stated; high values mean tight binding; most listed sequences are background and not binding sites; double strand, one strand shown.
For TCACTAGA, the binding signal was 0.0992 E-score.
For ACTAGGGG, the binding signal was 0.121 E-score.
Sequence GAAAGAAC has a binding signal of -0.129 E-score.
For ATCTAAAT, the binding signal was 0.15 E-score.
GCCATTTA gave a binding signal of -0.169 E-score.
CTACGACC was tested, and the binding signal was -0.287 E-score.
For ACATGTAC, the binding signal was -0.0938 E-score.
Work on ACGGCAAT yielded a binding signal of -0.135 E-score.
Sequence ATGTTCTG has a binding signal of 0.00549 E-score.
For CGTGGCTC, the binding signal was -0.0195 E-score.
Work on ATGTTTCC yielded a binding signal of -0.131 E-score.
ACACACCG showed a binding signal of 0.0905 E-score.
ACAACCCG gave a binding signal of -0.0244 E-score.
AAGTAAAG gave a binding signal of -0.265 E-score.
With GTTAGCTA the binding signal was -0.165 E-score.
AATTAGAC showed a binding signal of -0.00985 E-score.
With CATGTTCA the binding signal was -0.159 E-score.
For GAAACTAA, the binding signal was -0.171 E-score.
In the case of ATGCGTAG, the binding signal is reported as 0.0042 E-score.
AATTGAAA showed a binding signal of -0.201 E-score.
In the case of GACGCTAC, the binding signal is reported as -0.232 E-score.
Work on AGCAGCCG yielded a binding signal of -0.131 E-score.
With AGCCAACC the binding signal was -0.101 E-score.
With AACGTCGT the binding signal was -0.21 E-score.
Work on CACCCGAC yielded a binding signal of 0.00436 E-score.
For CCCTTGGA, the binding signal was 0.213 E-score.
With AATTTTGT the binding signal was -0.243 E-score.
With GTACCTAA the binding signal was -0.0837 E-score.
In the case of ACTTCGCA, the binding signal is reported as -0.359 E-score.
AGTCATTC showed a binding signal of -0.236 E-score.
With AGTTATGA the binding signal was 0.0121 E-score.
CAGAGATG showed a binding signal of 0.0747 E-score.
Sequence GCCGCACA has a binding signal of -0.224 E-score.
GTTTATCA showed a binding signal of -0.0874 E-score.
CCTTCCCG gave a binding signal of -0.0675 E-score.
In the case of ATTCAAGG, the binding signal is reported as -0.0934 E-score.
In the case of CGGACGGC, the binding signal is reported as -0.0951 E-score.
In the case of AACTACGT, the binding signal is reported as -0.119 E-score.
Work on ACCTCTCT yielded a binding signal of -0.142 E-score.
In the case of CTAACTTC, the binding signal is reported as -0.273 E-score.
ATTTTCAC showed a binding signal of -0.189 E-score.
Sequence AAGGCCGA has a binding signal of -0.00507 E-score.
CCAAATGA was tested, and the binding signal was -0.0119 E-score.
With CAACTCTC the binding signal was -0.21 E-score.
CACCTGCC gave a binding signal of -0.00262 E-score.
Sequence ACTATGGC has a binding signal of -0.186 E-score.
GAATTGAA showed a binding signal of -0.122 E-score.
GCCACAGA was tested, and the binding signal was -0.232 E-score.
With CGCCCGTA the binding signal was 0.069 E-score.
In the case of ATTGCCCG, the binding signal is reported as -0.0149 E-score.
In the case of TGGAGTAA, the binding signal is reported as 0.112 E-score.
Sequence GCTGCGAC has a binding signal of -0.244 E-score.
In the case of AAGTCAAT, the binding signal is reported as -0.188 E-score.
In the case of CCCACTAG, the binding signal is reported as -0.152 E-score.
GTACTTTA was tested, and the binding signal was -0.0635 E-score.
GAAAGTGC gave a binding signal of -0.389 E-score.
CCCATGCA gave a binding signal of -0.0904 E-score.
With ACCATTAT the binding signal was -0.0306 E-score.
Work on ACGCTTAT yielded a binding signal of -0.0636 E-score.
AACTGCAT was tested, and the binding signal was -0.189 E-score.
ACGCAATG was tested, and the binding signal was -0.0771 E-score.
GAACAGGA gave a binding signal of -0.121 E-score.
Work on ACGACGCA yielded a binding signal of -0.0219 E-score.
CCCCTCGG was tested, and the binding signal was 0.0987 E-score.
CATGCGGA gave a binding signal of 0.11 E-score.
ACTCCGTG gave a binding signal of -0.024 E-score.
In the case of ACAGGAGC, the binding signal is reported as -0.148 E-score.
ACGAGTTA showed a binding signal of -0.0416 E-score.
With TACTTCAA the binding signal was 0.0978 E-score.
Work on CGCCTTAA yielded a binding signal of -0.013 E-score.
Work on CCATATTC yielded a binding signal of 0.0903 E-score.
CTTTAACC showed a binding signal of -0.18 E-score.
Sequence ATGGTTAG has a binding signal of -0.00919 E-score.
In the case of AATGTAAT, the binding signal is reported as -0.0195 E-score.
CCCCAACG was tested, and the binding signal was -0.00121 E-score.
With CCATCAAG the binding signal was -0.179 E-score.
Sequence CGGTTGGC has a binding signal of 0.0734 E-score.
In the case of CTTCTCGA, the binding signal is reported as -0.164 E-score.
Work on AAGCAATC yielded a binding signal of -0.0222 E-score.
ATCTGACG was tested, and the binding signal was 0.0641 E-score.
With CAGACAAA the binding signal was -0.171 E-score.
AAGTGATG was tested, and the binding signal was 0.0598 E-score.
CTTCGCTC was tested, and the binding signal was -0.0327 E-score.
CGGATAAC was tested, and the binding signal was 0.339 E-score.
In the case of GGATACCC, the binding signal is reported as 0.484 E-score.
CGGGATTA gave a binding signal of 0.263 E-score.
CCACACGA gave a binding signal of -0.108 E-score.
Sequence CTATGGAC has a binding signal of -0.196 E-score.
GAGATCGC showed a binding signal of 0.27 E-score.
With CGGTTTAC the binding signal was 0.00887 E-score.
AGGAGCAT was tested, and the binding signal was -0.206 E-score.
AGGATCGG showed a binding signal of 0.32 E-score.
In the case of ACTGAGCC, the binding signal is reported as 0.0866 E-score.
In the case of CCGTTCGA, the binding signal is reported as 0.0582 E-score.
